Results reported in PubChem BioAssay AID686971 (National Center for Advancing Translational Sciences (NCATS), 2013).
Among all 360,000 compounds or so, about 7,500 (2.1%) were called active. This list was built around the results that the source calls inconclusive (neither active nor inactive); the mix of calls is not that of the screen. Calls come from the whole dose curve; as a rule, active = well fitted cell-killing curve with a large enough effect; inconclusive = small, poorly fitted or top-dose-only effect, or effect the other way, or another doubt; inactive = no such curve, though single readings can be large or run the other way. No potency is given beside an inconclusive call; the fits are too rough.

Experiment: qHTS for induction of synthetic lethality in tumor cells producing 2HG: qHTS for the HT-1080-IDH1KD cell line;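 for activity, negative = toxicity: 0% = DMSO wells and -100% = cell-free medium wells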
Settings: HT-1080 IDH1 knockdown viability, ATP luminescence, 48 h; activity, negative = toxicity: at 46.1 µM (top of the series) unless noted
Summary of the method: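 Cytotoxicity counter-line: IDH1KD HT-1080, 48 h, CellTiter-Glo. Curves classed by r2, magnitude and activity.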
Potency is the fitted concentration of half-maximal effect; tags give direction and shape of the fitted curve.

Row | Compound | activity, negative = toxicity | Potency
1 | Cc1cnc(C(=O)Nc2ccc(OC(F)(F)F)cc2)cn1 | inactive: -8.99% | 
2 | CCOC(=O)c1c(NC(=O)C(NCCN(C)C)c2ccccc2)sc2c1CCCC2 (centres undefined) |  | active: 18.4 µM
3 | O=[N+]([O-])c1ccc(-n2nnnc2-c2ccccc2)c([N+](=O)[O-])c1 |  | inconclusive [cytotoxic, single point]
4 | CCCCNC(=S)NCC(c1ccccc1)c1c[nH]c2ccccc12 (centres undefined) |  | inconclusive [cytotoxic, single point]
5 | CCC(O)(CC)C(=O)N/N=C/c1cc(Br)cc(Br)c1O |  | inconclusive [cytotoxic, single point]
6 | CCN(/N=C/c1ccccc1)c1cc(=O)n(C)c(=O)[nH]1 |  | inconclusive [rising, partial curve, poor fit]
7 | CN(Cc1ccccc1)C(=O)Nc1c(Cl)cccc1Cl |  | inconclusive [cytotoxic, single point]
8 | NNC(=O)c1cc2sccc2s1 |  | inconclusive [cytotoxic, full curve]
9 | O=C(Nc1cccnc1)c1cc(F)c(F)cc1Cl |  | inconclusive [rising, single point]
10 | CC1CCN(c2ccccc2NC(=S)NC(=O)c2ccco2)CC1 | inactive: -25.4% | 
11 | C=CCN1C(C(=O)c2ccccc2)=C(OC(=O)COc2ccccc2)c2ccccc2S1(=O)=O |  | inconclusive [cytotoxic, partial curve]
12 | Cc1cc(C(C)(C)C)cc(C)c1COC(=O)c1cccnc1 |  | inconclusive [cytotoxic, partial curve]
13 | CN(C)S(=O)(=O)c1ccc(-c2cn3ccccc3n2)cc1 |  | inconclusive [cytotoxic, partial curve]
14 | Clc1ccc2c(N/N=C/c3ccccc3Br)ccnc2c1 |  | inconclusive [cytotoxic, single point]
15 | CC1=NN(C(N)=S)C(=O)C1N=Nc1c(Br)cc(Br)cc1Br (centres undefined) |  | inconclusive [cytotoxic, partial curve]
16 | O=C1CCC/C1=C/Nc1cccc(F)c1 | inactive: 9.45% | 
17 | O=C(CN1CCN(S(=O)(=O)c2cc(Br)ccc2Br)CC1)NCc1ccccc1Cl | inactive: -24.6% | 
18 | OCOCCCn1c(C2CCCN2c2nc(-c3ccc(F)cc3)cs2)nc2cc(Cl)c(N3CCCCC3)cc21 (centres undefined) |  | inconclusive [cytotoxic, single point]
19 | CCOc1cc(/C=C2\C(=O)NN(c3ccccc3)C2=O)cc([N+](=O)[O-])c1O |  | inconclusive [cytotoxic, partial curve]
20 | CN(C)S(=O)(=O)c1cccc(NC(=O)/C=C/c2ccc(S(=O)(=O)N3CCOCC3)cc2)c1 | inactive: -2.49% | 
21 | C[n+]1c(-c2ccccc2)cc2c(=Cc3ccc([N+](=O)[O-])cc3)c3ccccc3n21 |  | inconclusive [cytotoxic, single point]
22 | O=C(Nc1ccc2c(c1)OCO2)c1cc(C2CCCN(C(=O)C3CCCCC3)C2)on1 (centres undefined) |  | inconclusive [cytotoxic, partial curve]
23 | CN1CCN(CCCN2c3ccccc3Sc3ccc(S(=O)(=O)N(C)C)cc32)CC1 |  | active: 11.6 µM
24 | Cc1ccc2nc(-c3ccccc3)cc(C(=O)NCC(c3ccco3)N(C)C)c2c1 (centres undefined) | inactive: -4.14% | 
25 | COc1cc2ncnc(Nc3ccc4c(c3)OCO4)c2cc1OC | inactive: 6.92% | 

Row | Compound | activity, negative = toxicity | Potency
26 | NC(Cc1c[nH]c2ccccc12)C(=O)NCc1ccco1 (centres undefined) | inactive: 4.66% | 
27 | O=C(Nc1ccc(Nc2ccccc2)cc1)c1ccc(F)cc1 | inactive: -15.7% | 
28 | CCN(CC)S(=O)(=O)c1cc(OC)c(Cl)cc1OC |  | inconclusive [rising, full curve, poor fit]
29 | COc1ccc(Cc2nn[nH]n2)cc1 | inconclusive: 31.4% | 
30 | Cn1c(=O)c2c(nc(CN3CCN(c4ccccc4)CC3)n2Cc2c(F)cccc2Cl)n(C)c1=O | inactive: -6.75% | 
31 | Cc1ccccc1CN1C(=O)CSCC1(C)C(=O)Nc1c(C)cccc1C (centres undefined) | inactive: 13.5% | 
32 | CN(C)c1ccc2c(c1)OC(N)=C(C#N)C2c1cccc(F)c1 (centres undefined) |  | active: 0.224 µM
33 | CC(=O)Nc1c(S(=O)(=O)c2ccccc2)c2nc3ccccc3nc2n1Cc1ccccc1 | inactive: -13.8% | 
34 | CCOC(=O)c1cc(C)nc(S(C)(=O)=O)c1C#N |  | active: 20.6 µM
35 | CCc1c(-c2ccccc2)ncn1Cc1cccc(-c2ccccc2)c1 |  | inconclusive [cytotoxic, single point]
36 | CCCC(=O)NC(c1ccc(OC)cc1)c1c(O)ccc2ccccc12 (centres undefined) |  | inconclusive [cytotoxic, partial curve]
37 | CCOc1ccc(NC(=O)CCN2CCN(c3ccccc3F)CC2)cc1 |  | inconclusive [cytotoxic, single point]
38 | COc1ccc(Cl)cc1NC(=O)CN(C)C(=O)c1cn2ccccc2n1 |  | inconclusive [cytotoxic, single point]
39 | CCc1ccc2[nH]c(=O)c(CN(CCCN3CCOCC3)C(=O)Nc3ccccc3)cc2c1 |  | inconclusive [cytotoxic, single point]
40 | COc1cccc(-n2nnnc2S(C)(=O)=O)c1 |  | active: 7.31 µM
41 | Cc1ccc(-c2nnn3c2nc(NCCc2ccc(S(N)(=O)=O)cc2)c2ccccc23)cc1 |  | inconclusive [cytotoxic, partial curve, poor fit]
42 | O=S(=O)(c1ccc(NC(=S)NCCC(c2ccccc2)c2ccccc2)cc1)N1CCOCC1 |  | inconclusive [cytotoxic, single point]
43 | Cc1cn([C@H]2C[C@H](O)[C@@H](/C=C/C(=O)NCCc3ccc(S(N)(=O)=O)cc3)O2)c(=O)[nH]c1=O | inactive: 18.1% | 
44 | CCOC(=O)c1ccc(CSC(=N)N)o1 |  | inconclusive [cytotoxic, single point]
45 | CC(=O)c1ccc(NC(=O)COC(=O)c2c3c(nc4ccccc24)/C(=C\c2cccs2)CCC3)cc1 |  | inconclusive [cytotoxic, partial curve, poor fit]
46 | CCc1ccc2c(COC(=O)C3CC(=O)N(CCc4ccccc4)C3)cc(=O)oc2c1 (centres undefined) | inactive: 0.494% | 
47 | CC(C)CNC(=O)C1(C)CCCN1Cc1ccc(OC(F)(F)F)cc1 (centres undefined) | inactive: 2.12% | 
48 | CSc1ccc(CN2CCC2(C)C(=O)NCc2ccccc2Br)cc1 (centres undefined) |  | inconclusive [cytotoxic, single point]
49 | C(=N\Nc1nc2ccccc2s1)/c1ccco1 |  | inconclusive [cytotoxic, single point]
50 | COC(=O)C1=C(C)OC(N)=C(C#N)C1C1CCCCC1 (centres undefined) |  | inconclusive [cytotoxic, single point]

Row | Compound | activity, negative = toxicity | Potency
51 | CN(C)c1ccc(C(C(=O)NCc2ccccc2)N(Cc2ccco2)C(=O)c2snc(C(N)=O)c2N)cc1 (centres undefined) |  | inconclusive [cytotoxic, partial curve]
52 | CC(C)(C)Cc1c(-c2ccc(F)cc2)nc2ccc(Br)cn12 | inactive: 3.5% | 
53 | CCC(=O)NC(=S)Nc1cccc(Cl)c1N1CCCCC1 |  | active: 5.62 µM
54 | COc1cc(OC)c2c(c1)C(=O)c1cc(OC)cc(OC)c1C2=O | inconclusive: 2.74% [cytotoxic] | 
55 | COc1cc(/C=C/C(=O)OCC(=O)Nc2ccc3c(c2)OCCO3)ccc1O |  | inconclusive [cytotoxic, single point]
56 | COc1ccc(-n2nnnc2/C=C\Nc2ccccc2C(=O)c2ccccc2)cc1 |  | active: 5.17 µM
57 | CC(C)(C)CNC(=O)C1(C)CCN1C(=O)Cc1ccc(-c2ccccc2)cc1 (centres undefined) |  | inconclusive [cytotoxic, single point]
58 | Oc1ccccc1N=Nc1nc(-c2ccccc2)c(-c2ccccc2)[nH]1 |  | inconclusive [cytotoxic, full curve]
59 | O=C(NCc1ccco1)c1cccc2c1C(=O)c1ccc(/C=C/c3ccccc3)cc1S2(=O)=O |  | inconclusive [cytotoxic, single point]
60 | Cc1cccc(CN2CCc3c(OCC(=O)NCc4ccco4)cccc3C2=O)c1 | inactive: -10.9% | 
61 | NC(N)=Nc1nc(C2COc3ccccc3O2)cs1 (centres undefined) |  | inconclusive [cytotoxic, single point]
62 | CC(C)(CNC(=O)c1cccc(NS(=O)(=O)c2ccc(Br)cc2)c1)N1CCOCC1 | inactive: -1.88% | 
63 | CCOC(=O)c1ccc(NC(=O)c2ccc(CN3CCc4ccccc4C3)cc2)cc1 |  | inconclusive [cytotoxic, full curve, poor fit]
64 | COCCNCC(O)CON=C1c2ccccc2-c2ccccc21 (centres undefined) |  | inconclusive [cytotoxic, partial curve]
65 | Clc1ccc(OCCOCCN2CCCCC2)c(Br)c1 | inactive: 4.5% | 
66 | O=c1[nH]c(=O)n(C2C[C@H](O)[C@@H](CO)O2)cc1C(F)(F)F (some centres undefined) |  | active: 4.11 µM
67 | O=C1CNC(=O)/C(=C/c2cccs2)N1 |  | inconclusive [rising, single point]
68 | ClCc1nnc(-c2cc3c(s2)CCCC3)o1 |  | inconclusive [cytotoxic, single point]
69 | O=C(NC1(C(F)(F)F)NC(=O)N(C2CCCC2)C1=O)C1CC1 (centres undefined) | inactive: 0.94% | 
70 | CCC(C)Nc1nc(-c2c[nH]c3ccccc23)cs1 (centres undefined) |  | inconclusive [cytotoxic, single point]
71 | CC(=O)Nc1cccc(C(=O)OCc2ccc(C(=O)Oc3ccc(Cl)cc3)cc2)c1 | inactive: -27.1% | 
72 | COc1cccc(NC(=O)Cc2csc(NC(=O)Nc3ccccc3OC)n2)c1 | inactive: 2.67% | 
73 | CNC(=S)N(Cc1cc2cc(C)ccc2n2nnnc12)CC(C)(C)CN(C)C | inactive: 9.08% | 
74 | O=C(CSc1ccc(Cl)cc1)Nc1ccc(-c2nc3ccccc3[nH]2)cc1 |  | inconclusive [cytotoxic, partial curve]
